# Test results published in article PMC6529219.
# Sequences of proteins named here, by UniProt entry; tags and fusion partners are left off. A change or cut given only in a name is not applied to a line headed by its entry.
# UniProt P54252: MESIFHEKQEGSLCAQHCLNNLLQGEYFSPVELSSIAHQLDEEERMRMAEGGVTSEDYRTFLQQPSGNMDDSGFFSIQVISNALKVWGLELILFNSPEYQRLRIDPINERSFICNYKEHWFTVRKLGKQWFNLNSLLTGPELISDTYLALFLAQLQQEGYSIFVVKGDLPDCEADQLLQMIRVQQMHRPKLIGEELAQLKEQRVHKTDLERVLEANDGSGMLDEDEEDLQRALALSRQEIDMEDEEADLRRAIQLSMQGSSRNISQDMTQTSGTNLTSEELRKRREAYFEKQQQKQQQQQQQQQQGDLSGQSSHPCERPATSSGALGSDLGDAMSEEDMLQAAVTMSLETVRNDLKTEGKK
# UniProt Q92793: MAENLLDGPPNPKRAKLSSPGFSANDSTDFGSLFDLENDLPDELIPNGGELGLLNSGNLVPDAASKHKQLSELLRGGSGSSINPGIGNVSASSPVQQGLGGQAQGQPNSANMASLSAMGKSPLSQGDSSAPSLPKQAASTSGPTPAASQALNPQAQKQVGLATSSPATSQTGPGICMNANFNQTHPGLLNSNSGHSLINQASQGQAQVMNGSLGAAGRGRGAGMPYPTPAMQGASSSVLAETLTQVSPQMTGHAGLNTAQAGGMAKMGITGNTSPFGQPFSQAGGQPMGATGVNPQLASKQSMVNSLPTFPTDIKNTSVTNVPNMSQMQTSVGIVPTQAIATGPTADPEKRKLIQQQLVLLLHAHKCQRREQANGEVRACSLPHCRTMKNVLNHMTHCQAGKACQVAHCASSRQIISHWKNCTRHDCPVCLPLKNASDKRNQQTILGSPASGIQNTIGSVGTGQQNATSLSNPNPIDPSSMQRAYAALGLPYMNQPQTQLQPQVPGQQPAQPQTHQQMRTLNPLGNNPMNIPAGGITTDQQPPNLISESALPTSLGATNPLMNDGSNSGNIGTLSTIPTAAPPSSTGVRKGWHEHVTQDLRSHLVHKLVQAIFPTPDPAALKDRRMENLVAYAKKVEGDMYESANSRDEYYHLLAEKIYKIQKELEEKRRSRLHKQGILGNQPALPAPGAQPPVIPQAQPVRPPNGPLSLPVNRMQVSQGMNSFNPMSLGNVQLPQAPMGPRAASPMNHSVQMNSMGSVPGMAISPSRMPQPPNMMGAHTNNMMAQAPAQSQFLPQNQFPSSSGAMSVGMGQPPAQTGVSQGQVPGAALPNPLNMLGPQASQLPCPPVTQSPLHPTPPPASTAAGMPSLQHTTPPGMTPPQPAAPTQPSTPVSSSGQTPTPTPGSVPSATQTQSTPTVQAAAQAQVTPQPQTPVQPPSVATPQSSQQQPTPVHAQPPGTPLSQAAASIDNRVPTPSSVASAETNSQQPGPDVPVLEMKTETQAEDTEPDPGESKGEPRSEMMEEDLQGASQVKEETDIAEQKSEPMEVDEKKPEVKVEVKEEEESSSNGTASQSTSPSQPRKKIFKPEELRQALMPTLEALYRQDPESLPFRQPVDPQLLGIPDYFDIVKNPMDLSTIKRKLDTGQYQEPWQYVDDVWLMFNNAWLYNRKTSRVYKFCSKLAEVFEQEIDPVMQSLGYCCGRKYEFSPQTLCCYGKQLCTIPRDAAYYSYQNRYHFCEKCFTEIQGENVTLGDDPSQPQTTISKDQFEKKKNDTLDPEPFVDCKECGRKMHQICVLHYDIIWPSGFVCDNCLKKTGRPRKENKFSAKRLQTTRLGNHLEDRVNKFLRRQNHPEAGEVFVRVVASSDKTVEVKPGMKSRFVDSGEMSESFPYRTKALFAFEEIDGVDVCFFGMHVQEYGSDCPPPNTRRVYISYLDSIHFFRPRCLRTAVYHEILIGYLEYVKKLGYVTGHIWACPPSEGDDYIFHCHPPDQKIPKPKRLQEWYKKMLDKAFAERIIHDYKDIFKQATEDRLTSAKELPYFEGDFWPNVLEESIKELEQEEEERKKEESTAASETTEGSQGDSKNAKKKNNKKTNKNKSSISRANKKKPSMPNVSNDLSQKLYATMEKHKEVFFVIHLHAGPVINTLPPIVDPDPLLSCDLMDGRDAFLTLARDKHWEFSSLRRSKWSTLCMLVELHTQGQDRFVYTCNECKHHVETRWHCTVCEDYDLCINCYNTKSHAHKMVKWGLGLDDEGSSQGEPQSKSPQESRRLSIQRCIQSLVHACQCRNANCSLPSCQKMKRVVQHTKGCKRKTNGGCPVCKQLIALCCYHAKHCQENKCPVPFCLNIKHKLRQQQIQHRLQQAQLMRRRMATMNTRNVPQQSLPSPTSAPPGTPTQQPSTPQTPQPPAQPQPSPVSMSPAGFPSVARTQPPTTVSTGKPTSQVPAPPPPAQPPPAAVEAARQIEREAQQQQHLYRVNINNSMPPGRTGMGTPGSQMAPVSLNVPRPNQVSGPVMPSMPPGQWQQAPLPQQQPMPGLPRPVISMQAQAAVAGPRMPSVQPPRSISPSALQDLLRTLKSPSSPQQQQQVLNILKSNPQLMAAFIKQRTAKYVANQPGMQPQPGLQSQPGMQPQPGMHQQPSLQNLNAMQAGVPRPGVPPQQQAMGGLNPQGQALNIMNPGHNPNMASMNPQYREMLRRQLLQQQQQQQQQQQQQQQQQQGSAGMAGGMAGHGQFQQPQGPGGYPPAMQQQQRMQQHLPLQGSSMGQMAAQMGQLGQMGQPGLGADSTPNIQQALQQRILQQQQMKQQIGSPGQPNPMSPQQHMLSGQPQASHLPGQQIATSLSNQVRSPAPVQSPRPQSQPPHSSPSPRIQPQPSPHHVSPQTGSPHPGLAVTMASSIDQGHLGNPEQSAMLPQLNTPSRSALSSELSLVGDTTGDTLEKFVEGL
# UniProt P54257: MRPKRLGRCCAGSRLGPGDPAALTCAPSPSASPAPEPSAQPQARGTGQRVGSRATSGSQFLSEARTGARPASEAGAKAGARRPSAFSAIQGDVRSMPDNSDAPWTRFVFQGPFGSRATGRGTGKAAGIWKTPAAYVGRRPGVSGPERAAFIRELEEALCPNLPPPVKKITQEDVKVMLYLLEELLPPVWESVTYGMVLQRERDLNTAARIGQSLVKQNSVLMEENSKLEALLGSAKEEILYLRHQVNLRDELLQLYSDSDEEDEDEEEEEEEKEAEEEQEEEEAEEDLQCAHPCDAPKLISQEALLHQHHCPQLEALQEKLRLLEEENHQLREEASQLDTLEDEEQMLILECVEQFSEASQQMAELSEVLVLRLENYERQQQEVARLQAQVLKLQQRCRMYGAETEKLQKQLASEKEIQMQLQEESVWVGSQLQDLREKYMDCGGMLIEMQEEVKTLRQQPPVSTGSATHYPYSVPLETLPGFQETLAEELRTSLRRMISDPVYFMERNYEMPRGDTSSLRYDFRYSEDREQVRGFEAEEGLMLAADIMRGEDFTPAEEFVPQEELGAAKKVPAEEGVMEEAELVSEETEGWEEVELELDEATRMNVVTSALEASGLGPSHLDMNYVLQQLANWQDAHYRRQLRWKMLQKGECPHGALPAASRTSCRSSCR
# UniProt P27695: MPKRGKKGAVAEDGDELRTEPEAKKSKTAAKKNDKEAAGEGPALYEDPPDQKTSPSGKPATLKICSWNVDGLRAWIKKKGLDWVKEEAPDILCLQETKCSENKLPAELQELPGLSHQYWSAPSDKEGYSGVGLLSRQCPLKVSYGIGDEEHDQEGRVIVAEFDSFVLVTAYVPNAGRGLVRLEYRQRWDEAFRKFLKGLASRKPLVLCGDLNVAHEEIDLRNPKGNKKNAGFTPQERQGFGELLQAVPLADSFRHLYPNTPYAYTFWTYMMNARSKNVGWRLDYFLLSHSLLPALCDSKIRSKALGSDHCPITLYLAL
# Results are given in words; binding and its absence hold for the method and conditions named. In cells and extracts the contact can be indirect. Some results given as binding are weak or reduced against the parent protein; the word gives no strength.
# B1: TAFII 130 (TAF4), endogenous (protein, UniProt O00268 1-1085)
# chain: MAAGSDLLDEVFFNSEVDEKVVSDLVGSLESQLAASAAHHHHLAPRTPEVRAAAAGALGNHVVSGSPAGAAGAGPAAPAEGAPGAAPEPPPAGRARPGGGGPQRPGPPSPRRPLVPAGPAPPAAKLRPPPEGSAGSCAPVPAAAAVAAGPEPAPAGPAKPAGPAALAARAGPGPGPGPGPGPGPGPGKPAGPGAAQTLNGSAALLNSHHAAAPAVSLVNNGPAALLPLPKPAAPGTVIQTPPFVGAAAPPAPAAPSPPAAPAPAAPAAAPPPPPPAPATLARPPGHPAGPPTAAPAVPPPAAAQNGGSAGAAPAPAPAAGGPAGVSGQPGPGAAAAAPAPGVKAESPKRVVQAAPPAAQTLAASGPASTAASMVIGPTMQGALPSPAAVPPPAPGTPTGLPKGAAGAVTQSLSRTPTATTSGIRATLTPTVLAPRLPQPPQNPTNIQNFQLPPGMVLVRSENGQLLMIPQQALAQMQAQAHAQPQTTMAPRPATPTSAPPVQISTVQAPGTPIIARQVTPTTIIKQVSQAQTTVQPSATLQRSPGVQPQLVLGGAAQTASLGTATAVQTGTPQRTVPGATTTSSAATETMENVKKCKNFLSTLIKLASSGKQSTETAANVKELVQNLLDGKIEAEDFTSRLYRELNSSPQPYLVPFLKRSLPALRQLTPDSAAFIQQSQQQPPPPTSQATTALTAVVLSSSVQRTAGKTAATVTSALQPPVLSLTQPTQVGVGKQGQPTPLVIQQPPKPGALIRPPQVTLTQTPMVALRQPHNRIMLTTPQQIQLNPLQPVPVVKPAVLPGTKALSAVSAQAAAAQKNKLKEPGGGSFRDDDDINDVASMAGVNLSEESARILATNSELVGTLTRSCKDETFLLQAPLQRRILEIGKKHGITELHPDVVSYVSHATQQRLQNLVEKISETAQQKNFSYKDDDRYEQASDVRAQLKFFEQLDQIEKQRKDEQEREILMRAAKSRSRQEDPEQLRLKQKAKEMQQQELAQMRQRDANLTALAAIGPRKKRKVDCPGPGSGAEGSGPGSVVPGSSGVGTPRQFTRQRITRVNLRDLIFCLENERETSHSLLLYKAFLK
# B2: DNA ligase 3 (LIG 3), endogenous (enzyme, UniProt P49916 43-1009)
# chain: LLHGHPLFLRRKPVLSFQGSHLRSRATYLVFLPGLHVGLCSGPCEMAEQRFCVDYAKRGTAGCKKCKEKIVKGVCRIGKVVPNPFSESGGDMKEWYHIKCMFEKLERARATTKKIEDLTELEGWEELEDNEKEQITQHIADLSSKAAGTPKKKAVVQAKLTTTGQVTSPVKGASFVTSTNPRKFSGFSAKPNNSGEAPSSPTPKRSLSSSKCDPRHKDCLLREFRKLCAMVADNPSYNTKTQIIQDFLRKGSAGDGFHGDVYLTVKLLLPGVIKTVYNLNDKQIVKLFSRIFNCNPDDMARDLEQGDVSETIRVFFEQSKSFPPAAKSLLTIQEVDEFLLRLSKLTKEDEQQQALQDIASRCTANDLKCIIRLIKHDLKMNSGAKHVLDALDPNAYEAFKASRNLQDVVERVLHNAQEVEKEPGQRRALSVQASLMTPVQPMLAEACKSVEYAMKKCPNGMFSEIKYDGERVQVHKNGDHFSYFSRSLKPVLPHKVAHFKDYIPQAFPGGHSMILDSEVLLIDNKTGKPLPFGTLGVHKKAAFQDANVCLFVFDCIYFNDVSLMDRPLCERRKFLHDNMVEIPNRIMFSEMKRVTKALDLADMITRVIQEGLEGLVLKDVKGTYEPGKRHWLKVKKDYLNEGAMADTADLVVLGAFYGQGSKGGMMSIFLMGCYDPGSQKWCTVTKCAGGHDDATLARLQNELDMVKISKDPSKIPSWLKVNKIYYPDFIVPDPKKAAVWEITGAEFSKSEAHTADGISIRFPRCTRIRDDKDWKSATNLPQLKELYQLSKEKADFTVVAGDEGSSTTGGSSEENKGPSGSAVSRKAPSKPSASTKKAEGKLSNSNSKDGNMQTAKPSAMKVGEKLATKSSPVKVGEKRKAADETLCQTKVLLDIFTGVRLYLPPSTPDFSRLRRYFVAFDGDLVQEFDMTSATHVLGSRDKNPAAQQVSPEWIWACIRKRRLVAPC
# What was measured:
# Myc-ATXN3 = Myc-ATXN3 (UniProt P54252); experiment: co-IP; HEK293 cells cotransfected with Myc-ATXN3 and FLAG-CBP; IP with Myc antibody (blot for CBP) or with FLAG antibody (blot for ATXN3) from nuclear extract
# [1] = target: huntingtin (HTT), endogenous (human (endogenous in SH-SY5Y)) (UniProt P42858); experiment: co-IP; FLAG-tagged PNKP or its domains transfected into SH-SY5Y cells, nuclear extract 48 hr later; IP with anti-FLAG antibody (blot for endogenous HTT) or with anti-HTT antibody (blot with anti-FLAG)
# FLAG-CBP = FLAG-CBP (UniProt Q92793); experiment: co-IP; HEK293 cells cotransfected with Myc-ATXN3 and FLAG-CBP; IP with Myc antibody (blot for CBP) or with FLAG antibody (blot for ATXN3) from nuclear extract
# [2] = target: ataxin-3 (ATXN3), endogenous (human (endogenous in SH-SY5Y)) (UniProt P54252); experiment: co-IP; endogenous bait (HTT, ATXN3, PNKP or POLR2A) immunoprecipitated from benzonase-treated nuclear extract of SH-SY5Y cells; washed with 50 mM Tris-HCl pH 7.5, 200 mM NaCl, 1 mM EDTA, 1% Triton-X100, 10% glycerol; western blot of the immunocomplex
# [3] = target: polynucleotide kinase-3'-phosphatase (PNKP), endogenous (human (endogenous in SH-SY5Y)) (UniProt Q96T60); experiment: as above
# [4] = target: huntingtin (HTT), endogenous (human (endogenous in SH-SY5Y)) (UniProt P42858); experiment: as above
# [5] = target: polynucleotide kinase-3'-phosphatase (PNKP), endogenous (human (endogenous in SH-SY5Y)) (UniProt Q96T60); experiment: proximity ligation; Duolink PLA on postmortem human brain sections, control and HD (mHTT-Q58)
# [6] = target: huntingtin (HTT), endogenous (human (endogenous in SH-SY5Y)) (UniProt P42858); experiment: as above
# [7] = target: polynucleotide kinase-3'-phosphatase (PNKP), endogenous (human (endogenous in SH-SY5Y)) (UniProt Q96T60); experiment: proximity ligation; Duolink PLA on fixed, permeabilised SH-SY5Y cells with pairs of mouse and rabbit primary antibodies; IgG as control
# [8] = target: huntingtin-associated protein 1 (HAP-1), endogenous (human (endogenous in SH-SY5Y)) (UniProt P54257); experiment: as above
# [9] = target: huntingtin (HTT), endogenous (human (endogenous in SH-SY5Y)) (UniProt P42858); experiment: as above
# [10] = target: ataxin-3 (ATXN3), endogenous (human (endogenous in SH-SY5Y)) (UniProt P54252); experiment: as above
# [11] = target: FLAG-tagged PNKP PHOS + KIN domains (C-terminal catalytic domain) (UniProt Q96T60); experiment: co-IP; FLAG-tagged PNKP or its domains transfected into SH-SY5Y cells, nuclear extract 48 hr later; IP with anti-FLAG antibody (blot for endogenous HTT) or with anti-HTT antibody (blot with anti-FLAG)
# [12] = target: FLAG-tagged full-length PNKP (FL-PNKP) (UniProt Q96T60); experiment: as above
Molecule,binding [2],binding [3],binding [4],also measured
FLAG-CBP (from UniProt Q92793 1-2442) (enzyme),,,,binding (Myc-ATXN3): binds
FLAG-tagged PNKP PHOS + KIN domains (C-terminal catalytic domain) (from UniProt Q96T60 131-521) (domain or fragment),,,,binding [1]: binds
FLAG-tagged full-length PNKP (FL-PNKP) (from UniProt Q96T60 1-521) (enzyme),,,,binding [1]: binds
Myc-ATXN3 (from UniProt P54252 1-361) (enzyme),,,,binding (FLAG-CBP): binds
"apurinic-apyrimidinic endonuclease 1 (APE1), endogenous (from UniProt P27695 1-318) (enzyme)",no binding,no binding,no binding,
"ataxin-3 (ATXN3), endogenous (from UniProt P54252 1-361) (enzyme)",,binds,binds,binding [5]: binds; binding [6]: binds; binding [7]: binds; binding [8]: binds; binding [9]: binds
"cyclic AMP-response element-binding (CREB) protein (CBP), endogenous (from UniProt Q92793 1-2442) (enzyme)",binds,binds,binds,binding [10]: binds
"huntingtin (HTT), endogenous (from UniProt P42858 1-3142)",,,,binding [11]: binds; binding [12]: binds
"huntingtin-associated protein 1 (HAP-1), endogenous (from UniProt P54257 1-671)",binds,binds,binds,binding [9]: binds
"polynucleotide kinase-3'-phosphatase (PNKP), endogenous (from UniProt Q96T60 1-521) (enzyme)",binds,,binds,binding [6]: binds; binding [9]: binds
B1,binds,binds,binds,
B2,binds,binds,binds,
